Reference: ChEMBL document CHEMBL1157539, “Thousands of chemical starting points for antimalarial lead identification” (Nature, 2010)
Over roughly 13,000 compounds, “IFI” has its median near 4; the highest 2% begin near 17. The list shows a part of the results.

Test: GSK_TCMDC: Inhibition Frequency Index (IFI). The number of non-kinase HTS assays where a compound showed > 50 % inhibition, expressed as a percentage of the number of such assays in which the compound was tested (-0 is zero)
Format: functional

Row | Structure (SMILES) | IFI [%]
1 | O=C(CCCCCNC(=O)c1ccc(O)c(-c2ccc(Cl)c(Cl)c2)c1)NCc1cccc(C(F)(F)F)c1 | 2.94
2 | O=C(/C=C/c1ccc(-c2nc3ccc(Cl)cc3[nH]2)cc1)NCc1cccc(F)c1 | 5.07
3 | CCOc1cc(C(=O)NC2CCN(Cc3ccccc3)CC2)ccc1-c1nc2cc(Cl)c(F)cc2[nH]1 | -0
4 | O=C(NC1CCN(CCN2CCC(c3cn(CCO)c4ccccc34)CC2)CC1)c1ccc(-c2ccc(C(F)(F)F)cc2)cc1 | 4.63
5 | CCOc1ccc(CNCCCCCCNCc2ccc(OCC)c3ccccc23)c2ccccc12 | 15.4
6 | Nc1ccc(-c2nc3c(ccc4ccccc43)[nH]2)cc1 | 3.51
7 | O=c1cc(NCCCNCc2scc(I)c2I)[nH]c2ccccc12 | 5
8 | COc1ccccc1NC(=O)Nc1cccc(-c2ccc(-c3nc4cccc(C)c4[nH]3)s2)c1 | 2.97
9 | O=S(=O)(NCCN1CCCC1)c1ccc(-c2ccc(CNCc3ccccc3)cc2)s1 | 7.84
10 | Cc1cc(C)c(CON2C(=N)N=C(N)NC2(C)C)cc1C | 3.57
11 | C=C(C)C1CC=C(CN2CCCC(n3ccc4cc(NC(=O)c5ccco5)ccc43)CC2)CC1 (stereo unspecified) | 9.38
12 | O=C(Nc1nc2cc(S(=O)(=O)NCc3ccc(Cl)c(Cl)c3)ccc2n1CCCn1ccnc1)c1ccc(Cl)cc1 | 1.42
13 | O=C(CCN1CCCCC1)Nc1ccc(Nc2nccc(NCC(O)c3ccccc3)n2)cc1 (stereo unspecified) | 1.03
14 | CCNc1cc(C(=O)N[C@@H](Cc2ccccc2)[C@H](O)CNC2(CC)CCCCC2)cc(N2CCCCS2(=O)=O)c1 | 3.01
15 | CN(CCC(CCN1CCC(c2c[nH]c3ccccc23)CC1)c1ccccc1)C(=O)Nc1ccc(Cl)c(Cl)c1 (stereo unspecified) | 10.7
16 | COc1ccc2ncc(F)c([C@H](O)CN3CCC(NCc4ccc5c(c4)OCCO5)CC3)c2c1 | 2.24
17 | Cc1nc2nc(N)nc(N)c2c(C)c1Cc1c(Cl)cccc1Cl | 4.44
18 | Cc1cc(O)c(CN(C)Cc2ccc(N(C)C)cc2)cc1C(C)C | 0
19 | CC1(C)NC(N)=NC(=N)N1OCC1CCCCC1 | 2.21
20 | CCn1cc2c3c(cc(C(=O)N[C@@H](Cc4ccccc4)[C@H](O)CNCc4cccc(OC)c4)cc31)N(C)S(=O)(=O)CC2 | 4.35
21 | CCOc1ncccc1CN1CCC(N2CCc3cc(NC(=O)c4ccco4)ccc32)C1 (stereo unspecified) | -0
22 | Cc1cc(NC(=O)c2ccco2)ccc1OC1CCN(Cc2ccc(F)cc2)C1 (stereo unspecified) | 1.64

Row | Structure (SMILES) | IFI [%]
23 | CC(C)C[C@H](NC(=O)c1ccc(OCCN2CCOCC2)cc1)C(=O)N[C@H](/C=N/NC(=O)c1ccccc1)CCc1ccccc1 | 9.09
24 | CC1CCN(CC[C@H]2CCCN2S(=O)(=O)c2cccc(NC(=O)c3ccc(-c4ccc(Cl)cc4)o3)c2)CC1 | 9.86
25 | COc1ccc(-c2cc(C(=O)Nc3ccc(CCCN(C)Cc4ccc(OC)c(OC)c4)cc3)c3ccccc3n2)cc1 | 7.86
26 | CC(C)(C)OC(=O)[C@H](CC(N)=O)NC(=O)c1ccc(-c2ccc(-c3nc4cc(C(F)(F)F)ccc4[nH]3)s2)cc1 | 5.66
27 | Cc1nc(-c2cccc(C(=O)NC3CCC(CCN4CCc5ccc(-c6cccnc6)cc5CC4)CC3)c2)no1 (stereo unspecified) | 4.35
28 | Cc1cccc2nc(-c3ccc(-c4ccc(C(=O)NCCN5CCCC5)cc4)cc3)[nH]c12 | 5.36
29 | CCCCCCn1c(Sc2ccc(C#N)c([N+](=O)[O-])c2)nnc1-c1cccs1 | 5.71
30 | Cc1cc(Nc2ccc(O)cc2)nc2cccc(O)c12 | 7.77
31 | N#Cc1ccc(-c2ccc(C(=O)NCCCCN3CCC(c4cc(Br)c5c(c4O)CCCC5)CC3)cc2)cc1 | 11.4
32 | CCc1ccc(NC(=O)N(CCCN2CCN(C)CC2)Cc2csc(-c3ccc(CNCc4ccccc4)cc3)n2)cc1 | 8.97
33 | COc1ccc2ncc(Cl)c(CCN3C[C@H](CNCc4ccc5c(n4)NC(=O)CS5)[C@H](O)C3)c2n1 | 4.76
34 | Cc1cc(N[C@@H](Cc2ccccc2)C(=O)NCc2cccc(F)c2)nc(NCCc2ccccc2)n1 | 9.3
35 | CC1CCC(C[C@@H](C(=O)N[C@@H](CCC(=O)N2CCCCC2)C(=O)Nc2nccs2)[C@H](C(C)C)N(O)C=O)CC1 (stereo partly specified) | 2.22
36 | c1cc(-c2ccc(CNCc3ccc(-c4csnn4)cc3)cc2)cc(-c2nc3ccccc3[nH]2)c1 | 11.4
37 | CCOc1cc(CC)ccc1C1CCN(CCN2CCC(NC(=O)c3ccc(-c4ccc(C(C)=O)cc4)cc3)CC2)CC1 | 1.83
38 | Cc1cccc2c(/C=C/C(=O)NC3CCC(CCN4CCc5ccc(C#N)cc5CC4)CC3)c[nH]c12 (stereo unspecified) | 1.52
39 | Cc1cccc2nc(-c3ccc(-c4ccc(NC(=O)Nc5ccc(Cl)cc5)cc4)s3)[nH]c12 | 5.94
40 | Brc1cc(Br)c2c(c1)C(NCCCNC1CCNc3c(Br)cc(Br)cc31)CCN2 (stereo unspecified) | 3.5
41 | O=c1cc(NCCCNCc2cn(S(=O)(=O)c3ccccc3)c3ccccc23)[nH]c2ccccc12 | 5.88
42 | CCc1cn2c3c(cc(C(=O)N[C@@H](Cc4ccccc4)[C@H](O)CNCc4ccc(C)cc4)cc13)N(C)S(=O)(=O)CC2 | 2.92
43 | CC1CCCN(c2ccc(NC(=O)c3cccs3)cc2[N+](=O)[O-])C1 (stereo unspecified) | 11.9
44 | c1cc(CN2CCCCC2)cc(-c2ccc(-c3nc4ccccc4[nH]3)s2)c1 | 2.86

Row | Structure (SMILES) | IFI [%]
45 | COc1ccc(CNC2CCN(C)CC2)cc1-c1ccc(S(=O)(=O)NCc2cccnc2)s1 | -0
46 | CCCC(CNCc1ccc(Cl)c(C(F)(F)F)c1)CNc1nc2cnccc2[nH]1 (stereo unspecified) | 2.88
47 | COc1ccc2ncc(C#N)c(CCN3C4CCC3CC(NCc3ccc5c(n3)NC(=O)CS5)C4)c2c1 (stereo unspecified) | 3.62
48 | Oc1cc2c(cc1CN1CCN(Cc3cccs3)CC1)CCC2 | 5.88
49 | O=C(c1ccccc1NN=C1C(=O)N(c2ccccc2)N=C1c1ccccc1)N1CCOCC1 | 2.11
50 | Cc1ccc(CNC(=O)[C@H](Cc2ccccc2)Nc2cc(C)nc(NCC3CCCCC3)n2)cc1 | 24.3
51 | Cc1cccc2nc(-c3ccc(-c4cccc(NC(=O)COc5ccccc5C(N)=O)c4)s3)[nH]c12 | 12.2
52 | O=C(NC1CCCc2ccccc21)C1CCCN(C(=O)c2ccc(O)c(-c3ccc(Cl)c(Cl)c3)c2)C1 (stereo unspecified) | 0.76
53 | NCC1(c2nc(-c3ccc(Cl)c(O)c3)c(-c3ccncc3)[nH]2)CCCCC1 | 3.55
54 | CC(C)Cc1nc2nc(N)nc(N)c2cc1C(C)C | 2.82
55 | Cn1c(Nc2cc(C(C)(C)C)on2)nc2cc(Nc3ccnc(Nc4ccc(CS(C)(=O)=O)cc4)n3)ccc21 | 0.95
56 | Cc1ccc(NC(=O)C(C)Sc2nnc(-c3ccccc3Br)[nH]2)cc1 (stereo unspecified) | 3.85
57 | O=C(CSc1nnc(O)n1Cc1ccccc1)Nc1ccccc1-c1ccccc1 | 0.76
58 | COc1ccc(-c2nc(NC(=O)Cc3ccc(OC)c(OC)c3)sc2C)cc1 | 10.4
59 | CC(C)(C)c1ccc2[nH]c(-c3ccc(/C=C/C(=O)NCc4cccc(C(F)(F)F)c4)cc3)nc2c1 | 2.9
60 | CN(C)CCNCc1ccc(-c2ccc3c(Nc4ccc(F)cc4Cl)ccnc3c2)o1 | 9.86
61 | CCc1ccccc1-c1csc(C(=O)NCC2CCN(Cc3ccc(C(C)(C)C)cc3)C2)c1 (stereo unspecified) | 16.7
62 | COc1cccc(C2CCN(CCN3CCC(CNC(=O)c4ccc(-c5ccc(C(F)(F)F)cc5)cc4)CC3)CC2)c1 | 8.77
63 | COc1ccc2nccc(NC(=O)C3(O)CCC(NCc4ccc5c(c4)NCCS5)CC3)c2n1 (stereo unspecified) | 6.77
64 | COc1cc(NCCCNCc2cn(S(=O)(=O)c3ccccc3)c3ccccc23)nc2ccccc12 | 8.96
65 | CC(CC1CCCCC1)NCc1ccccc1OCCC(=O)N1CCCC1C(N)=O (stereo unspecified) | 0.77
66 | COc1ccc(-c2cnn3ccc(Nc4cc(OC)c(OC)c(OC)c4)nc23)cc1OC | 12.8

Row | Structure (SMILES) | IFI [%]
67 | N=C(N)NC(=O)Nc1cc(Br)c(Br)c(Br)c1 | 6.5
68 | CC(=NNC(N)=O)C1=C(O)C(c2ccccc2)N(C2CCCCC2)C1=O (stereo unspecified) | 1.52
69 | O=C(CCc1c[nH]cn1)Nc1cccc(-c2ccc(-c3nc4cc(F)ccc4[nH]3)s2)c1 | 2.61
70 | CC(C)Nc1nc(NC2CCCCC2)nc(N2CCCCCCC2)n1 | 4.96
71 | CC1CCN(c2nc(C(=O)NCCc3ccc(Cl)c(Cl)c3)c(C(C)C)s2)CC1 | -0
72 | CCCC(C)C(=O)N1CCOC(COCc2cccc(C(F)(F)F)c2)(c2ccc(Cl)cc2)C1 (stereo unspecified) | 2.82
73 | O=C(Nc1ccc(Cn2ncc(N3CCCNCC3)c(Cl)c2=O)cc1)Nc1cc(F)cc(C(F)(F)F)c1 | 8.82
74 | Cc1cc(C2CCN(CCCCNC(=O)c3ccc(NC(=O)c4ccc(Cl)cc4)cc3)CC2)c(C)cc1OCCN(C)C | 5.76
75 | Cc1ccc(NC(=O)c2ccc(C(=O)NC3CCN(CC4CCCCC4)CC3)cc2)cc1 | 1.79
76 | COc1ccc(S(=O)(=O)N2CCCc3ccc(Br)cc32)cc1N1CCN(C(=O)C(Cl)(Cl)Cl)CC1 | 4.2
77 | Cc1cc(-c2ccc3c(c2)CCN(CCCOc2ccc4c(c2)CCN4C(=O)/C=C/c2ccccc2Cl)CC3)no1 | 10.8
78 | COc1ccc(NC(=O)C2c3ccccc3C(=O)N(CC(C)C)C2c2cccs2)cc1OC (stereo unspecified) | 2.38
79 | COc1ccc(-c2ccc(S(=O)(=O)Nc3cc4c(cc3OC(C)C)CCN(C)CC4)cc2)cc1 | 4.29
80 | O=C(NCC1CN(Cc2ccc(N3CCCC3)o2)CCCO1)c1ccc2c(c1)OCO2 (stereo unspecified) | 3.85
81 | CN1CCN(CC(=O)Nc2ccc(-c3ccc(-c4nc5ccccc5[nH]4)s3)cc2)CC1 | 3.6
82 | COc1ccc(-c2csc(NC(=O)CCC(=O)O)n2)cc1OC | 1.44
83 | O=C(Nc1ccc(-c2ccccc2)cc1)Nc1cccc(Cn2ncc(N3CCCNCC3)c(Cl)c2=O)c1 | 8.22
84 | COc1cc2nc(N3CCC(CNC(=O)c4ccc(C(C)=O)cc4)CC3)nc(N)c2cc1OC | 1.77
85 | O=C(NCC1CCN(C/C=C/c2ccccc2)CC1)Nc1ccc(Oc2ccccc2)cc1 | 14.2
86 | COc1ccccc1C(=O)Nc1ccc(Nc2nc(C)cc(N3CCOCC3)n2)cc1 | 10.8
